Laboratory results as given in PMC6919601, “Identification of Plasmodium dipeptidyl aminopeptidase allosteric inhibitors by high throughput screening” (PLoS ONE, 2019).
In all, about 110,000 compounds went through this assay and about 230 (0.21%) showed an effect of 50% or more. This is one part of the list.

Molecular target: DPAP1 (Plasmodium falciparum, UniProt Q8IIJ9)
Assay: primary screen, percent inhibition; read by cleavage of a fluorogenic dipeptide substrate; higher = more effect of the substance
Set-up: species or system P. falciparum D10 trophozoite lysates; single well
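Also: 30 min substrate incubation versus DMSO and 10 µM JCP410 controls.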

Chain of DPAP1 (Q8IIJ9 whole entry, looked up): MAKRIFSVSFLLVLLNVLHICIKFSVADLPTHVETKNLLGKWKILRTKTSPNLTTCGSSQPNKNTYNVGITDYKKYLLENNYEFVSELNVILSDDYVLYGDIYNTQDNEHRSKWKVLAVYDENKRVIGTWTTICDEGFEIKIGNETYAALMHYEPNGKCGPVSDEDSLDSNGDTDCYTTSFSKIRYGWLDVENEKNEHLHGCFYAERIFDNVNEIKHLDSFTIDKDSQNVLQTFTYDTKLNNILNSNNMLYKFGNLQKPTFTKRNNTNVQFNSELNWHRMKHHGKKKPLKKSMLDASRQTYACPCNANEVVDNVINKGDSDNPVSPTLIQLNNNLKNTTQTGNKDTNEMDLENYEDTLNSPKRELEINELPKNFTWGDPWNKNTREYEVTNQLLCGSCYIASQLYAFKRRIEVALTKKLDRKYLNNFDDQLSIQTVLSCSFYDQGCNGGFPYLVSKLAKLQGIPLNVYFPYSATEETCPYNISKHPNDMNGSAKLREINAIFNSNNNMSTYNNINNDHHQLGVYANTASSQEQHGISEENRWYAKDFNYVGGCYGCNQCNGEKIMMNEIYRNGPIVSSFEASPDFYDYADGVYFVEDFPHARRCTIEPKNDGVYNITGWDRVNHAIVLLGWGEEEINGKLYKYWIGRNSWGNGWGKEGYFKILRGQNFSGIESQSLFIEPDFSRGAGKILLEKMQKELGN

Point of comparison: Cc1cc(Cl)ccc1OCC(=O)Nc1sc2c(c1C#N)CCC2, “% Inhibition @ 10 uM” value 1.57%. Against it:
- OC1=C2CN(CCc3ccccc3)CN=C2Sc2ccccc21 — higher, 3.48%
- Cc1ccc(OCC(=O)N[C@@H](C)c2ccccc2)c(Br)c1 — lower, -3.09%
- O=C(CCc1nc(-c2ccccc2F)no1)N1CCC2(CC1)OCCO2 — lower, 0.738%
- CC1(C)CC2(CCCCC2)NCc2ccccc21 — higher, 1.82%
- Cc1ccc(C)n1-c1nnc(N2CCCC(C(=O)NCCN(C)C)C2)s1 (stereo not drawn) — higher, 1.72%
- Cc1nn(-c2ccccc2)c2c1C(c1cccc(Cl)c1)C(C#N)=C(N)O2 (stereo not drawn) — higher, 3.65%
- Cc1cccc(CNC(=O)Cn2nc(C)c3c(C)n(-c4ccccc4)nc3c2=O)c1 — higher, 11.3%
- NC(=O)c1ccccc1NC(=O)C(c1ccccc1)c1ccccc1 — lower, -5.71%
- CCCCNC(=O)c1cc(-c2ccncc2)nc2ccccc12 — lower, -0.519%
- CCSc1nc(O)c2c(n1)N=C1CCCC(O)=C1C2c1ccc(O)c(OC)c1 (stereo not drawn) — higher, 2.38%
- COCC(C)NC(=O)Cn1cnc2c1c(=O)n(C)c(=O)n2C (stereo not drawn) — higher, 6.68%
- O=C(NCc1ccccn1)c1ccc(CS(=O)c2ccccc2Cl)o1 (stereo not drawn) — lower, -2.15%
- CCOC(=O)c1c(NC(=O)c2cc(OC)c(OC)c(OC)c2)sc(C(=O)N2CCCC2)c1C — lower, -1.46%
- CC(=O)NC1=C(N2CCOCC2)C(=O)c2nonc2C1=O — higher, 3.9%
- Clc1ccc(CN2CCN(c3ccccc3Cl)CC2)c(Cl)c1 — lower, -1.92%
- Cc1cc(NC(=O)c2cnn3c(C(F)(F)F)cc(-c4ccc(Br)cc4)nc23)no1 — higher, 25.5%
- CN1C(=O)C2Cc3c([nH]c4ccccc34)C(c3ccc(F)cc3)N2C1=S (stereo not drawn) — lower, 0.00784%
- CCCN1CCC(N(CCO)Cc2ccccc2)CC1 — the same, 1.57%
- COc1ccc(N2CCN(Cc3ccccc3Br)CC2)cc1 — lower, -2.56%
- Cc1ccc2nc3c(O)n(CC(=O)N4CCN(C)CC4)ncc-3c2c1 — lower, -1.79%
- COc1ccc(CO/C(O)=C2/C(C)=NC3=C(C(=O)CC(C)(C)C3)C2c2ccncc2)cc1 (stereo not drawn) — higher, 1.67%
- O=C(CNc1nnc(O)nc1O)OCc1ccccc1 — lower, -2.62%
- COc1ccc(/C(C)=N/OCC(=O)Nc2nc3ccccc3s2)cc1OC — lower, -1.86%
- N#CC1=C(N)OC2=C(C(=O)CC(c3ccccc3)C2)C1c1c[nH]c2ccccc12 (stereo not drawn) — higher, 9.41%
- CN(CCCNC(=O)Cn1ccc2cc(S(=O)(=O)N3CCCCC3)ccc21)Cc1ccccc1 — higher, 2.94%
- COc1ccccc1/C=C1\N=C(c2ccc(Cl)c(Cl)c2)OC1=O — lower, -4.46%
- CC1CC(C)CN(C(=O)CSc2nnc(-c3ccc(Cl)s3)o2)C1 (stereo not drawn) — lower, -2.8%
- Cc1ccc(CNC(=O)Cn2ncc3c2-c2ccccc2OC3)o1 — higher, 9.96%
- O=C1c2ccccc2C(=O)c2c(O)c([N+](=O)[O-])cc(O)c21 — higher, 11.3%
- Nc1c(C(=O)NC2CC2)sc2nc(-c3ccc(F)cc3)cc(C(F)(F)F)c12 — higher, 3.5%
- CCCN(CCC)C(=O)CS(=O)(=O)Cc1nc(-c2ccc(C)cc2)oc1C — lower, -5.58%
- CC(C)c1ccc(C2c3c(oc4ccc(F)cc4c3=O)C(=O)N2CCCN2CCOCC2)cc1 (stereo not drawn) — lower, 0.628%
- CC1=NN2C(=N)/C(=C/c3cn(Cc4cccc(C)c4)c4ccccc34)C(=O)N=C2S1 — higher, 2.17%
- O=C(Cc1ccc(-c2ccccc2)cc1)Nc1ccc2ccccc2c1 — lower, -4.87%
- c1ccc(N2CCN(Cc3ccc4c(c3)OCO4)CC2)cc1 — lower, -1.38%
- O=C(NCCC1=CCCCC1)C1C2C=CC3(CN(Cc4cccs4)C(=O)C13)O2 (stereo not drawn) — higher, 15.7%
- CCOc1ccc(NC(=O)Cc2ccccc2F)cc1 — lower, -1.11%
- COc1ccc(-n2c3c(c(O)cc2=O)C(=O)CC(C)(C)C3)cc1 — lower, -4.76%
- Cc1sc2nc(-c3ccc(C(C)C)cc3)nc(O)c2c1C — lower, -3.09%
- CCCCCO/C(O)=C1\C(C)=NC2=C(C(=O)CC(C)(C)C2)C1c1cccc(OC)c1OC (stereo not drawn) — lower, -1.03%
- CCN(CC)c1ccc(NC(=O)C2CC2c2ccccc2)cc1 (stereo not drawn) — lower, 1.24%
- COc1ccc(OC)c(CNCc2c(C(=O)O)n(Cc3ccc(F)cc3)c3cc(OC)ccc23)c1 — lower, -1.53%
- CCCc1cc(C(=O)NCCOc2ccccc2Cl)n(C)n1 — lower, -1.96%
- Cc1nc2ccn(Cc3cccnc3)c(=O)c2cc1C(=O)NCCC1=CCCCC1 — lower, -6.53%
- O=C(CN1N=C(c2ccccc2)CCC1=O)N1CCC2(CC1)OCCO2 — lower, 0.514%
- O=C(CCNS(=O)(=O)c1cccs1)Nc1nccs1 — higher, 1.83%
- Cc1nn(Cc2ccccc2)c(C)c1NC(=O)c1ccn(C)n1 — higher, 11%
- CCC(C)c1ccc(NC(=O)c2cccc(OC)c2)cc1 (stereo not drawn) — lower, -3.39%
- CC1CCN(CN2C(=O)C(=O)c3ccccc32)CC1 — lower, -6.67%
- CCOC(=O)C1CCN(Cc2ccc(Br)o2)CC1 — higher, 3.01%
- COc1ccc(CCNC(=O)C2CCCN(c3nnc(N4CCCC4=O)s3)C2)c(OC)c1 (stereo not drawn) — lower, -4.68%
- COc1cc2ncc(S(=O)(=O)c3ccc(Cl)cc3)c(N3CCOCC3)c2cc1OC — higher, 25.2%
- COc1ccc(C2C(C(C)=O)=C(O)C(=O)N2CO)cc1 (stereo not drawn) — higher, 2.37%
- COc1ccc(CN2CCN(Cc3ccccc3Br)CC2)c(OC)c1OC — lower, 0.873%
- COc1cccc(OC)c1C(=O)Nc1sc2c(c1C#N)CCCC2 — lower, -2.89%
- COc1ccc(C2c3c(oc4ccc(C)cc4c3=O)C(=O)N2c2nccs2)cc1OC (stereo not drawn) — lower, 0.415%
- Cc1cc(C(=O)O)ccc1-n1c(C)ccc1C — lower, 1.26%
- CC(C)C[C@H](NC(=O)N1CCN(c2cccc(C(F)(F)F)c2)CC1)C(=O)NCC#N — lower, -0.406%
- Cc1nn(C)cc1CNC(=O)Nc1cccc(Cl)c1 — higher, 2.65%
- O=C(CCN1C(=O)C2C3C=CC(C3)C2C1=O)Nc1nnc(C(F)(F)F)s1 (stereo not drawn) — lower, -0.551%
- CCOc1ccc(CCNC(=O)CN2C(=O)CSc3nc(C)cc(C)c32)cc1 — lower, -6.01%
- O=c1oc2ccccc2c(N(CCO)Cc2ccccc2)c1[N+](=O)[O-] — higher, 7.96%
- COc1ccc(/C=C/c2nc(C#N)c(N3CCN(C)CC3)o2)cc1OC — higher, 5.68%
- Cc1ccc(C2OC3(C(=O)c4ccccc4C3=O)C3C(=O)N(c4ccc(F)cc4)C(=O)C23)cc1 (stereo not drawn) — lower, -5.49%
- Cc1cc(-c2ccccc2)c2c(n1)sc1c(O)cc(O)nc12 — higher, 5.5%
- CC(=O)c1c(C)cc2cc(C)cc(O)c2c1O — lower, -4.11%
- O=S(=O)(c1cccc(C(F)(F)F)c1)N1CCOCC1 — higher, 4.83%
- O=C1N=C(N2CCOCC2)S/C1=C/c1ccc(Cl)cc1 — higher, 4.8%
- NS(=O)(=O)c1ccc(NC(=S)NC(=O)c2ccc(F)cc2)cc1 — lower, -1.29%
- CC1=NN(C(=O)Cc2ccccc2)C(O)(c2cccnc2)C1 (stereo not drawn) — lower, -1.28%
- CC(=O)N1CCC2(CC1)OC(=O)C(C)=C2C(=O)NC1CCCC1 — lower, -6.13%
- CCOc1ccccc1C(=O)Nc1ccc(F)cc1F — higher, 3.48%
- Cc1cc2sc3nc(=O)c4cccnc4n3c2cc1C — lower, -2.82%
- CC(=O)Nc1ccc(C(=O)O)cc1[N+](=O)[O-] — lower, 1.45%
- Cc1ccc2[nH]c(SCc3ccccc3F)nc2c1 — higher, 1.64%
- O=c1oc2ccc(Cl)cc2n1Cc1ccccc1F — higher, 2.38%
- Cn1nc(-c2ccc(OCC(=O)Nc3cccnc3)cc2)c2ccccc2c1=O — lower, -3.23%
- O=C(Nc1cccc(N2C(=O)C3C4CCC(C4)C3C2=O)c1)c1ccccc1 (stereo not drawn) — lower, -5.23%
- Cc1nn(Cc2ccc(C(=O)Nc3ccon3)o2)c(C)c1Br — lower, -1.55%
- CCCOc1ccc(C(=O)Nc2cc(C)cc(C)c2)cc1 — higher, 4.57%
- O=C(Nc1ccn(Cc2ccc(F)cc2)n1)C1CCCC1 — higher, 5.24%
- COC(=O)C1=CN(Cc2ccc(Cl)cc2)C=C(C(=O)OC)C1c1ccc(OC)c(OC)c1OC — higher, 3.43%
- COc1cccc(OC)c1C(=O)Nc1cc(C)ccc1C — higher, 2.22%
- CCCCOc1ccc(C(C)NC(=O)c2ccc(CNS(=O)(=O)c3ccc(OC)cc3)cc2)cc1 (stereo not drawn) — lower, -3.35%
- O=C(Nc1ccc(S(=O)(=O)N2CCCC2)cc1)C1CCCCC1 — lower, -4.02%
- O=C(c1ccc(S(=O)(=O)c2ccc(Cl)cc2)cc1)N1CCOCC1 — lower, -4.11%
- Cc1nc(N2CCN(c3ncccn3)CC2)c2c3c(sc2n1)CCC3 — higher, 9.48%
- COc1cc(C2C(C#N)=C(N)Oc3[nH]nc(-c4ccc(Cl)s4)c32)ccc1O (stereo not drawn) — lower, -4.91%
- CCOC(=O)C1=C(C)N=c2s/c(=C\c3ccc(C)o3)c(=O)n2C1c1ccccc1 (stereo not drawn) — higher, 6.09%
- COc1ccc2c(CNCc3ccc(C)o3)c(C(=O)O)[nH]c2c1 — lower, -3.01%
- Cc1ccc(CNC(=O)NCc2noc3ccccc23)cc1 — higher, 2.49%
- Cc1sc2ncnc(Oc3ccc4c(C)cc(=O)oc4c3)c2c1C — lower, -4.98%
- O=C1N=C(SCC(=O)N2CCN(C34CC5CC(CC(C5)C3)C4)CC2)NC(=O)C1Cc1ccccc1 (stereo not drawn) — lower, -19.8%
- Cc1ccc(SCCC(=O)NCCC2=CCCCC2)cc1 — lower, -1.22%
- N#CC1=C(N)N(c2ccc(Br)cc2F)C2=C(C(=O)CCC2)C1c1cccs1 (stereo not drawn) — lower, -1.06%
- CC(C)C(=O)Nc1c(-c2cccs2)nc2ccccn12 — higher, 3.48%
- C(=C\c1nc(-c2ccc(-n3cccc3)cc2)no1)/c1ccccc1 — lower, 1.19%
- CCn1ncc(Br)c1C(=O)N(C)C12CC3CC(CC(C3)C1)C2 — higher, 4%
